The other results are listed elsewhere or left out.
System: T1, Caupolican (Caup) homeodomain DNA-binding domain
T1 sequence: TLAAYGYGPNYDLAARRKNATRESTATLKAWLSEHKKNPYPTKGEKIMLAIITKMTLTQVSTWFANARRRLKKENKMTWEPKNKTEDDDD
Assay: PBM E-score (8-mer, recovered from the published 9-mer minima) (E-score (dimensionless, -0.5 to 0.5)); Drosophila protein; higher = stronger relative binding preference, active = 0.31 or more
In short: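 Caup's homeodomain DNA-binding domain (residues 214-303) was made by in vitro transcription and translation and applied at 100 nM to custom-designed protein binding microarrays. Each value is an enrichment score that gives relative binding preference for a short DNA word, with higher meaning stronger. The 8-mer values were recovered from published 9-mer scores, each of which was the minimum of its two constituent 8-mer scores. A cutoff of 0.31 marks candidate sites.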

Row | Sequence | PBM E-score
1 | ACACGGGT | inactive: 0.282
2 | ATTCAGTA | inactive: 0.122
3 | GTAACGCA | inactive: 0.0272
4 | CCAGAGTC | inactive: -0.051
5 | ACAAACAT | active: 0.368
6 | AAAAGCTG | inactive: -0.0792
7 | AATAATGT | inactive: 0.215
8 | CACATGAC | inactive: 0.242
9 | CGAACGGA | ≥ 0.0258
10 | CGGACAAC | inactive: 0.235
11 | CCCGAGCA | inactive: -0.124
12 | ATAGTGAA | inactive: 0.143
13 | GAGTACAA | inactive: 0.262
14 | ACACGCCC | inactive: 0.0902
15 | GGAATCAA | inactive: -0.0161
16 | GACATGGC | active: 0.314
17 | CATACCCG | inactive: -0.0573
18 | GACCCGGA | inactive: -0.222
19 | CCAAGTGC | inactive: -0.122
20 | AACGCGTA | inactive: 0.0291
21 | AGAACACG | active: 0.33
22 | CAACACAG | inactive: 0.186
23 | GGCGTTGA | inactive: -0.0877
24 | GTTACTGA | inactive: 0.0723
25 | ACCTTGCC | inactive: -0.0691

Row | Sequence | PBM E-score
26 | ACGCCAAC | inactive: -0.0473
27 | GGCCGAGA | inactive: -0.214
28 | TGCTGGAA | inactive: -0.00021
29 | ATGTGCGG | inactive: 0.0311
30 | ACTATTCC | inactive: 0.0305
31 | GGTACTGA | inactive: -0.00654
32 | GAGTCGCC | inactive: -0.256
33 | CGGTTGAG | inactive: -0.0733
34 | GCGCTAAA | inactive: -0.0419
35 | GTTCGTTA | inactive: 0.0461
36 | AAGTCGGT | inactive: -0.0447
37 | GGCACTAC | inactive: -0.0645
38 | CGATTTAG | inactive: 0.0168
39 | CCCTTGGC | inactive: -0.267
40 | AAATAGAA | inactive: 0.042
41 | GTCTGGGA | inactive: -0.086
42 | GGGTAACC | inactive: -0.0785
43 | AAATATTC | inactive: 0.139
44 | CGAGTAAA | inactive: -0.0202
45 | AGGTGTAG | inactive: 0.125
46 | CATGCAGA | inactive: 0.143
47 | AGCGGCAC | inactive: -0.174
48 | CTAGGCTA | inactive: -0.103
49 | AATCGTAT | inactive: 0.127
50 | GATATTAC | inactive: 0.215

Row | Sequence | PBM E-score
51 | AGCGGTGC | inactive: -0.145
52 | CGCGTTTC | inactive: -0.0801
53 | ACAATTGT | ≥ 0.193
54 | ACCTATGA | inactive: -0.0172
55 | CCCTATCA | inactive: -0.0683
56 | AAGCATCT | inactive: 0.0398
57 | CGAGCGAC | inactive: -0.083
58 | AGTAACCA | inactive: 0.0688
59 | AACCACTC | inactive: 0.124
60 | GTCAGTAA | inactive: 0.0579
61 | AATATCCG | inactive: 0.042
62 | AACTAACA | active: ≥ 0.339
63 | GTCTACAC | inactive: 0.139
64 | CCTACTGC | inactive: -0.0966
65 | CATCCCTA | inactive: 0.0158
66 | ACCGGAAG | inactive: 0.00591
67 | AGAGCTAT | inactive: -0.0647
68 | AAACTGCA | inactive: -0.06
69 | CAGGACGA | inactive: 0.0556
70 | AGGTTCCC | inactive: -0.15
71 | CGCTCTAG | inactive: -0.12
72 | CGCACTAG | inactive: -0.0416
73 | CTATCCCC | inactive: -0.175
74 | AATTGACC | inactive: 0.00485
75 | CAGTATTA | inactive: 0.0707

Row | Sequence | PBM E-score
76 | GGGACGCA | inactive: -0.169
77 | AACATCCC | inactive: 0.184
78 | AACTGGGC | inactive: -0.169
79 | AGGGCCGG | inactive: -0.279
80 | AACTTTTC | inactive: 0.0404
81 | AAGTAGGG | inactive: 0.0412
82 | CAACCTAC | inactive: -0.0324
83 | AATTCACG | inactive: -0.0221
84 | CATGGGCA | inactive: -0.0568
85 | GTGCAGCA | inactive: -0.066
86 | AATCCAAA | inactive: 0.0835
87 | GCCACCTA | inactive: -0.192
88 | CCCGTGGC | inactive: -0.321
89 | AGGTTACA | inactive: 0.191
90 | TAGGACAA | inactive: 0.228
91 | GCAAGTGA | inactive: 0.0247
92 | ACAGAATA | ≥ 0.149
93 | GAATACAC | inactive: 0.25
94 | GCTGTTCA | inactive: 0.164
95 | ACATGATA | active: 0.413
96 | ACCTCGAA | inactive: -0.0127
97 | ACAGGAAA | inactive: 0.19
98 | GTCTATCA | inactive: 0.0945
99 | CCGGGGAC | inactive: -0.208
100 | ATTAGCCA | ≥ 0.0405

Row | Sequence | PBM E-score
101 | ATTTAAGA | inactive: 0.0381
102 | ACGTAGCC | inactive: -0.102
103 | ACATTACC | inactive: 0.12
104 | ACAGGGCT | inactive: -0.0308
105 | CTACGTCC | inactive: -0.022
106 | GTACCCCA | inactive: -0.0476
107 | CCCCTCAA | inactive: -0.242
108 | AAGGTGTG | inactive: 0.0323
109 | GGGCTTAC | inactive: -0.119
110 | AATTTAAA | inactive: 0.0692
111 | AGGTAATG | inactive: 0.0391
112 | GCTTGGAA | inactive: -0.0323
113 | AAATTTCT | inactive: -0.0395
114 | CCTATGCA | inactive: 0.0958
115 | ACACTTCG | inactive: 0.0579
116 | GGACCTAC | inactive: -0.0116
117 | CACAGAGG | inactive: -0.06
118 | CCTGGCCG | inactive: -0.192
119 | CTCGTGAC | inactive: -0.0131
120 | ACGACCAA | inactive: 0.0331
121 | CATTCTAG | inactive: 0.108
122 | GGGCTAAA | inactive: -0.154
123 | ATCTCGAG | inactive: -0.0318
124 | CGGGTTTA | inactive: -0.0325
125 | AGCGGGGA | inactive: -0.159

Row | Sequence | PBM E-score
126 | ACACCGCT | inactive: 0.0823
127 | CACCTACC | inactive: -0.0826
128 | CAGAAAAA | inactive: 0.00797
129 | CCAACAGA | inactive: 0.00649
130 | CCTACGCG | inactive: -0.0395
131 | AGTGCTCG | inactive: 0.0345
132 | GCTAGGAA | inactive: -0.134
133 | GCCCCATA | inactive: -0.205
134 | ACCTTCTA | inactive: 0.0348
135 | GGAGGCCA | inactive: -0.293
136 | GAGCAATC | inactive: -0.0149
137 | AGAGGCAA | inactive: -0.029
138 | CAACGGTC | inactive: -0.0524
139 | AGAGGCGA | inactive: -0.1
140 | ACACGTAC | inactive: 0.307
141 | CGTAACAC | inactive: 0.26
142 | ACAGGCCT | ≥ 0.0238
143 | GGGTGGTA | inactive: -0.0433
144 | CGTTGAAC | inactive: -0.00169
145 | AGCGATAA | inactive: -0.0803
146 | ACAGAGGT | ≥ 0.0767
147 | AGCTTCCA | inactive: -0.15
148 | CTTAGAGC | inactive: -0.0766
149 | GTGAATTA | inactive: 0.062
150 | ACCCCCAG | inactive: -0.321

Row | Sequence | PBM E-score
151 | CCAACTTC | inactive: -0.115
152 | GACCAGTA | inactive: -0.0165
153 | ATATGGTG | inactive: 0.0644
154 | CTCTGTAA | inactive: 0.12
155 | GCTTCCGA | inactive: -0.0431
156 | ATCTGCCG | inactive: -0.0474
157 | ACAATTTC | inactive: 0.111
158 | CCATCCAA | inactive: 0.106
159 | CATTCGGA | inactive: 0.0408
160 | CGGGGTAA | inactive: -0.137
161 | CTGGTAGA | inactive: 0.0426
162 | CAAGTAAA | inactive: 0.156
163 | CGTTGTTC | inactive: 0.209
164 | ACCTGGTC | inactive: -0.0411
165 | CGTGCTAC | inactive: -0.118
166 | TCTCGCCA | inactive: -0.132
167 | GACCACGC | inactive: -0.102
168 | CCACACGC | inactive: -0.079
169 | CCTGAGGC | inactive: -0.258
170 | CCAGCCCA | inactive: -0.204
171 | AGGGCGAA | inactive: -0.13
172 | AAAGCGTG | inactive: 0.0162
173 | CAAACGAC | inactive: 0.102
174 | GACCGGAA | inactive: -0.0188
175 | CATCCATG | inactive: 0.117

Row | Sequence | PBM E-score
176 | TGTCGGAA | inactive: 0.245
177 | GATCGCCA | inactive: -0.0838
178 | AATGTATG | inactive: 0.243
179 | ATTTTTTA | ≥ 0.103
180 | AGCCCGCG | inactive: -0.222
181 | CCGAACGA | inactive: 0.0498
182 | GGGAAACA | inactive: 0.0916
183 | AAATGTCA | inactive: 0.266
184 | GAGAGTGA | inactive: -0.0562
185 | ACGGAGAG | inactive: -0.149
186 | TACTAAAA | inactive: 0.0194
187 | TCCTCACA | inactive: 0.00493
188 | ACCCGTCT | inactive: -0.0421
189 | ATCGTACA | active: 0.349
190 | AGGTCTCA | inactive: -0.08
191 | AGGAAGAG | inactive: -0.127
192 | CATCCTAG | inactive: 0.0143
193 | ACACTCTA | inactive: 0.0891
194 | CGGAATAC | inactive: 0.0594
195 | ATGCGCAC | inactive: -0.0396
196 | CTTCGACA | inactive: 0.207
197 | ACTAGTAG | inactive: 0.219
198 | AGAACGAT | inactive: 0.134
199 | CTTGAAAC | inactive: 0.0181
200 | GCCCGGGC | inactive: -0.292

Row | Sequence | PBM E-score
201 | GCGTGTCA | inactive: 0.284
202 | ACTCCAGA | inactive: -0.0847
203 | CACTCTTA | inactive: 0.0507
204 | GACACCTC | inactive: 0.136
205 | CCCGCAAG | inactive: -0.183
206 | ACACCGCA | inactive: 0.0414
207 | AACACCCG | inactive: 0.0438
208 | AATTTTTA | inactive: 0.0856
209 | AATTAGGA | inactive: 0.0255
210 | AAGGATAT | inactive: 0.125
211 | GAGTCAAC | inactive: 0.0923
212 | AAGAAGGA | inactive: 0.0173
213 | TGAGTGCA | inactive: -0.0812
214 | GACACCGC | inactive: -0.0458
215 | CGTTTTTC | inactive: -0.0114
216 | CCGCAGAC | inactive: -0.168
217 | ATTAAGGG | inactive: -0.0468
218 | CCAAGGCG | inactive: -0.153
219 | ACAGAGGC | inactive: -0.0573
220 | ATAAGTAC | inactive: 0.158
221 | CGCGCGCC | inactive: -0.112
222 | CAAAACGC | inactive: -0.0204
223 | AGATTGAG | inactive: 0.0476
